Screen size: about 310,000 compounds; about 14,000 (4.5%) showed an effect of 50% or more. The effect is printed as a negative number. The list shows a part of the results.
target: human ether-à-go-go-related gene (hERG) potassium channel (human, UniProt Q12809); experiment: primary screen, population patch clamp on CHO cells stably expressing hERG
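Note: peak tail current of the secondary pulse compared with the same well before compound.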

Chain of human ether-à-go-go-related gene (hERG) potassium channel (Q12809 whole entry, looked up): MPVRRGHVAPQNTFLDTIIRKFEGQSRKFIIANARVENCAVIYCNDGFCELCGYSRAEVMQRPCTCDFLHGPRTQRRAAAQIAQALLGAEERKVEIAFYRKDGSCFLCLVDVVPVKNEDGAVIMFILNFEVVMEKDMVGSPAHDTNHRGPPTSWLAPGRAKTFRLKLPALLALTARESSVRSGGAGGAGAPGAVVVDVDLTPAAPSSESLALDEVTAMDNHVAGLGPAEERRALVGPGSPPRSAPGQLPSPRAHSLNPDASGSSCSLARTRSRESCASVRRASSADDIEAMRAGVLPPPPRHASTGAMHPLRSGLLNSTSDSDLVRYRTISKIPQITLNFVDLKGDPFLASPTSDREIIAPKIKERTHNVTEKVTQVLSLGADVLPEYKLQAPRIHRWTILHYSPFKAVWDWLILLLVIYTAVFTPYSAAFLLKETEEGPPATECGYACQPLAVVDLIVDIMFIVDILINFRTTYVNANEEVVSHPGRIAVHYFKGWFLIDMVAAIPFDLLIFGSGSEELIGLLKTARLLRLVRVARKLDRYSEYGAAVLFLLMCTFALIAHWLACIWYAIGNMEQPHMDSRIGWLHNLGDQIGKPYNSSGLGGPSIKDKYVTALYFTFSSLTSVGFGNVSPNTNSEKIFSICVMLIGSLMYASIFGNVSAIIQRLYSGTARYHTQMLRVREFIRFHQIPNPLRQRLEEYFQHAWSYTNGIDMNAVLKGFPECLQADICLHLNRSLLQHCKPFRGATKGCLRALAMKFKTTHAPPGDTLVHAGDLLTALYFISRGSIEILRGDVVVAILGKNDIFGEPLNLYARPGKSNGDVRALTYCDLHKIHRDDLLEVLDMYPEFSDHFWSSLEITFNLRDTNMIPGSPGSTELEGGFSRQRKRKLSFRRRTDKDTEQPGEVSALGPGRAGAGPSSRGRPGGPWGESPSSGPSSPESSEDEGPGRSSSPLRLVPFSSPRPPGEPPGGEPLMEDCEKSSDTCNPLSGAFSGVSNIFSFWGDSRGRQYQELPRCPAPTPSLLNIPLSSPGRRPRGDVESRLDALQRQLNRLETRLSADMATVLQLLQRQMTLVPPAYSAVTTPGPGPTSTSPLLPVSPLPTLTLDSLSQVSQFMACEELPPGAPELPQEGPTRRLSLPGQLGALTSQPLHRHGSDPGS

Structure (SMILES)	hERG current change (%, negative = inhibition) at 10uM [%]
CC(C)CN1CCN(CC#Cc2ccccc2)CC1CCO (stereo not drawn)	-3.92
Cc1ccc(S(=O)(=O)Nc2nnc(C(C)(C)C)s2)cc1	8.56
O=C(N/N=C/c1ccsc1)C1CC1	24.6
COc1ccc(Cl)cc1S(=O)(=O)N1CCCC(C(=O)NCc2ccncc2)C1 (stereo not drawn)	-25.7
Fc1cccc(/C=N/Nc2ncnc3nc[nH]c23)c1	11.1
CN1C(=O)c2ccc(C(=O)NCc3ccccc3)cc2C1=O	7.61
CC(=O)/C=C(\C)Nc1ccc(-c2cnc(-c3ccccc3)o2)cc1	-4.59
COc1ccc(C2(CNC(=O)c3cccc([N+](=O)[O-])c3)CCOCC2)cc1OC	-10.8
CCOc1ccc(C(=O)N2CCN(C(=O)c3ccco3)CC2)cc1OCC	-5.57
Nc1nc(SCC(=O)N2CCc3ccccc32)[nH]c(=O)c1-c1ccccc1	-10.7
CCOC(=O)c1c(C)n(C)c2cc(Br)c(C(=O)OC)cc12	-11.1
O=C(CSc1ncn[nH]1)OCN1C(=O)c2ccccc2C1=O	5.07
COc1ccccc1NC(=O)c1ccc(CN(c2cc(Cl)ccc2C)S(=O)(=O)c2ccccc2)cc1	-7.35
COc1ccc2cc(C(c3nnnn3C3CCCCC3)N3CCCCCC3)c3nnnn3c2c1 (stereo not drawn)	4.6
O=C(Nc1ccccc1N1CCCCC1)C1=COCCO1	-32.6
COC(=O)C1=C(Nc2ccccc2NC(=O)c2ccccc2C(=O)O)CSC1	8.85
CCN(CC)P(=O)(Nc1ccc(Br)cc1)c1c(C)nn(CCC#N)c1NC(=O)c1ccc(Cl)cc1 (stereo not drawn)	7.19
CCNC(=S)NNC(=O)c1cc(-c2cccc(C)c2)nc2ccccc12	5.42
COc1cccc(-c2cccc(NC(=O)C3CCN(CC4CCOC4)CC3)c2)c1 (stereo not drawn)	-53.2

Structure (SMILES)	hERG current change (%, negative = inhibition) at 10uM [%]
Cc1ccc2c(c1)N(C(=O)CCC(=O)NCc1cccc(Cl)c1)CC(C)O2 (stereo not drawn)	-45.9
Cc1nc(C(=O)NCCO)cc2c1[nH]c1ccccc12	17.1
CCOC(=O)C1CCN(Cc2nnnn2CCc2ccccc2)CC1	-4.94
CCOc1ccc(NC(=O)CN2CCN(CC(=O)Nc3cccc(F)c3)CC2)cc1	-86.3
CN(C)Cc1nnnn1-c1ccccc1	-26
CCOc1ccc(C(=O)CC(C(=O)O)N2CCCCC2)cc1 (stereo not drawn)	7.67
COc1ccc(C(=O)Nn2cnc3scc(-c4cccs4)c3c2=O)c(O)c1	-6.78
CC1=C(C(=O)OC2CCCC2)C(c2coc3ccccc3c2=O)C2=C(CCCC2=O)N1 (stereo not drawn)	-3.33
C=CCSc1nc(C)c(Cc2cccc3ccccc23)c(=O)[nH]1	2.87
COc1cccc(CN2CCC(C(=O)N3CCN(c4ccccc4F)CC3)CC2)c1OC.O=C(O)C(=O)O	-10.2
N#CC1=C(N)N(c2ccccc2)C2=C(C(=O)CCC2)C1c1cccs1 (stereo not drawn)	-28.1
O=C(O)c1ccc2oc(SCC(=O)N3CCCCC3)nc2c1	-33.7
O=c1[nH]c(=O)n(Cc2ccccc2)c2c1CCC2	6.8
COc1ccccc1-n1cnc2cc(C(=O)NCc3ccco3)ccc21	-14.8
O=C(C1=C[C@H](c2coc3ccccc3c2=O)C[C@H](OCc2ccc(CO)cc2)O1)N1CCN(Cc2ccc3c(c2)OCO3)CC1	-57.2
O=C(O)CCN1CC2([N+](=O)[O-])C=CC(=O)C([N+](=O)[O-])(C1)C2CC(=O)c1ccccc1 (stereo not drawn)	10.6
C/C(=N\N=C\c1cccc(F)c1)c1nnn(-c2nonc2N)c1C	0.95
CC(C)Cn1c(N)c(C(=O)COC(=O)c2ccc(Cl)cc2)c(=O)n(C)c1=O	-37.4
CC12C(=O)N(c3ccccn3)C(=O)C1C1C=CC2C1 (stereo not drawn)	13.7

Structure (SMILES)	hERG current change (%, negative = inhibition) at 10uM [%]
Cc1cc(C)nc(/N=C(\N)N2CCCCCC2)n1	-3.86
O=C(C1CCN(CC2CCCCC2)CC1)N1CCCC1	9.26
Cc1nnc(SCC(=O)N(CC(C)C)c2c(N)n(Cc3ccccc3)c(=O)[nH]c2=O)n1N	9.97
Cc1cc(C)n2nc(C(=O)OCC(=O)Nc3ccc4c(c3)OC(F)(F)O4)nc2n1	-63.8
O=C(CNc1ccc(F)cc1F)NC(=O)NCc1ccco1	1.72
O=C(O)c1ccc2c(=O)[nH]c(CCl)nc2c1	-3.35
CSc1nccc(-c2nn(-c3ccc(C)cc3)ccc2=O)n1	-15
COc1ccc(-c2nnc(SCCc3ccccc3)n2N)cc1	-18.6
CC(=O)c1cccc(NC(=O)c2sc(Cl)nc2C)c1	22.7
O=C(COC(=O)CSc1ccccc1)NCCNC(=O)COC(=O)CSc1ccccc1	-12.6
O=C(CCC(=O)N(CC(=O)NC1CCCCC1)Cc1ccc(F)cc1)Nc1nccs1	-3.45
CC(=O)c1ccc(OCc2ccc(C(=O)c3ccccc3)cc2)cc1	0.433
CCN(CC(=O)Nc1c(F)cccc1F)C(=O)CC1CCCC1	-7.25
CC(C)(Oc1ccc(Cl)cc1)C(=O)N/N=C/c1cn[nH]c1-c1ccccc1	-11.2
Cc1ccc2nsnc2c1NC(=O)c1ccccc1[N+](=O)[O-]	7.96
c1ccc(-c2ccncc2)nc1	21.4
CCOc1ccccc1NC(=O)CSc1nnc(CNC(=O)c2ccccc2F)o1	-1.3
Cc1ccc(/C=N/Nc2nncn2N)cc1.Cl	15.3
C/C(=N/OC(=O)c1cccc(C(F)(F)F)c1)c1cnccn1	5
